Experimental data as given in PubChem BioAssay (Tox21).
“And” between values parts separate entries of the source, which are not always exact repeats. Identical values can stand only once. The inconclusive results got no clear call from the source; some entries with a clear call stand among them for comparison. For some assays here: Potencies of inconclusive entries are doubtful fits and often do not repeat. The source made the active and inactive calls. Unless noted, the call rests on the fitted dose curve; in most records, active means well fitted cell-killing curve with a large enough effect in the repeat runs; inconclusive means weak or mixed curves; inactive means no such curve, though single readings can be large or run the other way.

Test system: not listed separately
Assay: qHTS assay for identifying genotoxic compounds that show differential cytotoxicity against isogenic chicken DT40 cell lines with known DNA damage response pathways - Rad54/Ku70 mutant cell line (AID 743015); further: nearly all actives have a fitted effect of over 60% in size
Conditions: DT40 Rad54/Ku70 mutant viability, CellTiter-Glo, 40 h; activity change, negative = cytotoxicity: at 66.8 µM (top of the series)
On the % scale 0 is the no-effect control and ±100 the full control effect; potency means the concentration at half of the fitted maximal effect; tags describe the fitted curve by direction and shape.

| Structure (SMILES) | Potency |
| --- | --- |
| FC(F)(F)C(Cl)Br (stereo not given) | inactive |
| CC(CCO)CC(C)(C)C (stereo not given) | inactive |
| CC[C@H](C)[C@@H](C(=O)O)n1sc2ccccc2c1=O | inconclusive: 48.6 µM [cytotoxic, partial curve, poor fit] |
| C#CCOC(=O)[C@@H](C)Oc1ccc(Oc2ncc(Cl)cc2F)cc1 | inconclusive: 48.3 µM [cytotoxic, partial curve] |
| CN1CCC(=C2c3ccccc3Sc3ccccc32)CC1 | active: 8.41 µM |
| O=C(O)Cc1sc(-c2ccccc2)nc1-c1ccc(Cl)cc1 | inconclusive: 33.5 µM [cytotoxic, single point] |

Test system: not listed separately
Assay: qHTS assay to identify small molecule antagonists of the androgen receptor (AR) signaling pathway - cell viability counter screen (AID 743033; further: nearly all actives have a fitted effect of over 45% in size)
Conditions: AR-bla HEK293 viability, CellTiter-Glo luminescence, 16 h; activity change, negative = cytotoxicity: at 58.5 µM (top of the series) unless noted

| Structure (SMILES) | Potency | activity change, negative = cytotoxicity |
| --- | --- | --- |
| Cc1nc2ccccc2n1Cc1ccc(Cl)cc1 | inconclusive: 0.535 µM [cytotoxic, full curve] |  |
| CC[C@H](C)[C@@H](C(=O)O)n1sc2ccccc2c1=O |  | inactive: -12.1% |
| Cc1ccc2c(Cl)cc(Cl)c(O)c2n1 | inconclusive: 6.74 µM [cytotoxic, full curve] |  |
| CN(C)CCOC1=Cc2ccccc2Sc2ccc(Cl)cc21 | inconclusive: 23.9 µM [cytotoxic, single point] |  |
| O=C1O[C@H]([C@@H](O)CO)C(O)=C1O | inconclusive: 26.8 µM [cytotoxic, partial curve, poor fit] |  |
| O=C(O)Cc1sc(-c2ccccc2)nc1-c1ccc(Cl)cc1 | inconclusive: 26.8 µM [cytotoxic, single point] and inconclusive: 16.9 µM [cytotoxic, partial curve, poor fit] |  |
| C=Cc1ccc(C)cc1 | inconclusive: 3.57 µM [cytotoxic, full curve, poor fit] and inactive |  |
| O=[N+]([O-])c1ccc(O)cc1C(F)(F)F | active: 27.5 µM |  |
| Nc1ncn([C@H]2C[C@H](O)[C@@H](CO)O2)c(=O)n1 | inconclusive: 26.8 µM [rising, partial curve] |  |

Molecular target: Androgen receptor (Homo sapiens) (UniProt P10275)
Assay: qHTS assay to identify small molecule antagonists of the androgen receptor (AR) signaling pathway (AID 743035; active means well fitted inhibition curve with a large enough effect in the signal ratio in the repeat runs, not every such curve was filed as active; inconclusive means weak or mixed curves, or effect the other way; inactive means no such curve, though single readings can be large or run the other way; the % refers to the signal ratio)
Conditions: HEK293 AR-UAS-bla, R1881-stimulated, beta-lactamase FRET, 16 h; activity change, negative = inhibition: at 58.5 µM (top of the series) unless noted
In short: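 Reporter HEK293 cells were exposed to compounds and R1881 overnight (16 h, 37C); beta-lactamase activity was then quantified by FRET fluorescence.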

Sequence of UniProt P10275 (P10275 whole entry, looked up): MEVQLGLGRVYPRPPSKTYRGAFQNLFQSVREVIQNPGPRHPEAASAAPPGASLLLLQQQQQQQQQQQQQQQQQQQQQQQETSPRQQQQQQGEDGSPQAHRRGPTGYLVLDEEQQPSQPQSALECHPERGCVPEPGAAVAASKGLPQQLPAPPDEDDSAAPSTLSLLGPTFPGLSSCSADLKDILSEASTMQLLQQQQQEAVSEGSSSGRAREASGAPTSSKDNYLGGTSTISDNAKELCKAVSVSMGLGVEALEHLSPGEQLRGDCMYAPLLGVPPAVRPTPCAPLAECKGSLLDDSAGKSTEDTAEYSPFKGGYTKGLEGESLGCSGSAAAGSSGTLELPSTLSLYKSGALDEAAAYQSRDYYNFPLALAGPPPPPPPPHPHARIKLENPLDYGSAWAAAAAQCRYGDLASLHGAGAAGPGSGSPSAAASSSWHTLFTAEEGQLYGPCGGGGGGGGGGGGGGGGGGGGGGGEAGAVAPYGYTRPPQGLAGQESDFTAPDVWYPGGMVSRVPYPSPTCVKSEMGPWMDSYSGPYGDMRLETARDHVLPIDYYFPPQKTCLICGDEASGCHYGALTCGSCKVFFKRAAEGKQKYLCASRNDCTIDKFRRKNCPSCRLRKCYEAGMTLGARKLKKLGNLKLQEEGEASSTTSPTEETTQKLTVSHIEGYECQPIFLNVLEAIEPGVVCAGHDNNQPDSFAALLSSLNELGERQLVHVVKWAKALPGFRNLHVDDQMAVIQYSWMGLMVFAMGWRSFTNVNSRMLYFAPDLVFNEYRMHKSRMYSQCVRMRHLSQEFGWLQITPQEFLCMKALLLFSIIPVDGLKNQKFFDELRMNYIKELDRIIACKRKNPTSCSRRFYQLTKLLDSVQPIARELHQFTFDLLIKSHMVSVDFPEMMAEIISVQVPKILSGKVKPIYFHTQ

| Structure (SMILES) | Potency | activity change, negative = inhibition |
| --- | --- | --- |
| CC(CCO)CC(C)(C)C (stereo not given) | inactive |  |
| CCCOC(=O)c1ccc(N)cc1 |  | inconclusive: -35.8% |
| Cc1ccc2c(Cl)cc(Cl)c(O)c2n1 |  | inconclusive: -65.5% |
| CN1CCC(=C2c3ccccc3Sc3ccccc32)CC1 | active: 26.8 µM |  |
| O=C(O)Cc1sc(-c2ccccc2)nc1-c1ccc(Cl)cc1 |  | inconclusive: -35.3% |
